{
  "source": "PubChem BioAssay AID488969",
  "about": "(Vanderbilt High Throughput Screening Facility, 2010)",
  "note": "Over roughly 110,000 compounds, “z-score” has its median near -0.1; the highest 2% begin near 2. The list shows a part of the results. Calls of active or inactive are those of the source.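 How the source made its calls: active means z-score in the third read window above 3 or below -3; inactive means the rest.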",
  "data": [
    {"molecular_target": "Metabotropic glutamate receptor 8 (Rattus norvegicus) (UniProt P70579)", "sequence (P70579 whole entry, looked up)": "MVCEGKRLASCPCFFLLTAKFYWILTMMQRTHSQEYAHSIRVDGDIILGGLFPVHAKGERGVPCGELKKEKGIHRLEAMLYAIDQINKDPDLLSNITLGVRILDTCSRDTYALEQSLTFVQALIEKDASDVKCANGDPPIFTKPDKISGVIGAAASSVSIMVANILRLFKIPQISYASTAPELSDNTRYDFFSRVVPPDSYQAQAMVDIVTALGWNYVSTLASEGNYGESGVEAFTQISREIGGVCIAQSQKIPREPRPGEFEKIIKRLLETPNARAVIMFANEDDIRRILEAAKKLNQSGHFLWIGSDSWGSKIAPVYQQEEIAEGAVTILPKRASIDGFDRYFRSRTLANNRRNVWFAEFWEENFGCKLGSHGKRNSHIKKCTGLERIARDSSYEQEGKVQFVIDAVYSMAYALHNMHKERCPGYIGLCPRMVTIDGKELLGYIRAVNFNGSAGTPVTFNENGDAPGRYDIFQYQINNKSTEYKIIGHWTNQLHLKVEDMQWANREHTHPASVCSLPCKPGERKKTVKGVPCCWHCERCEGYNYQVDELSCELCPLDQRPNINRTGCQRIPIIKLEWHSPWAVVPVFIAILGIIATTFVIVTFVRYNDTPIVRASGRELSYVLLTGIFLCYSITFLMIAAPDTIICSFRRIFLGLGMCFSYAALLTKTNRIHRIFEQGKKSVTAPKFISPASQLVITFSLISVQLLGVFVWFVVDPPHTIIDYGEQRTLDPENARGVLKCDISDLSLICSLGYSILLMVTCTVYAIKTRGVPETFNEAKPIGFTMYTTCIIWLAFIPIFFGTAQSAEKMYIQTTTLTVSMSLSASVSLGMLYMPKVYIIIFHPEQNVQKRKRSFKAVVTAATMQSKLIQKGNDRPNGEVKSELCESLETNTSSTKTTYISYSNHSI", "test": "rat mGluR8 modulators via GIRK flux, primary screen, cell-based, thallium flux, HTS (AID 488969)", "settings": "HEK293 rat mGluR8, GIRK (G protein-gated inwardly rectifying potassium channel) thallium flux, FluoZin2; at 10 µM; stronger effect = higher value; submaximal glutamate (EC20) added with thallium", "values": [
      {"smiles": "Cc1cccc(NC(=O)CSc2nnc(-c3ccc(S(=O)(=O)N4CCCC4)cc3)o2)c1", "z-score": -0.704},
      {"smiles": "Cc1[nH]n2c(=O)cc(C(C)C)nc2c1-c1ccccc1", "z-score": -0.963},
      {"smiles": "CN(Cc1ccccc1)c1nc2c(c(=O)[nH]c(=O)n2C)n1CCCSc1ncccn1", "z-score": 0.398},
      {"smiles": "CCCN(CCC)C(=O)c1c(NC(=O)CC)sc2c1CCCCC2", "z-score": -0.257},
      {"smiles": "O=C(N1CCN(c2ccc(F)cc2)CC1)C1(c2cccs2)CCOCC1", "z-score": -0.652},
      {"smiles": "COc1ccc(C2OCC3(CO2)SC(N)=NC3=O)cc1", "note": "(centres undefined)", "z-score": -0.146},
      {"smiles": "CS(=O)(=O)NCCCc1ccccc1", "z-score": -0.0519},
      {"smiles": "CCOC(=O)c1c(NC(=S)NCCc2ccccc2)sc2c1CC(C(C)C)OC2", "note": "(centres undefined)", "z-score": "active: 3.42"},
      {"smiles": "CCOc1ccc(C2Nc3ccc4ccccc4c3-c3c2c(=O)oc2ccccc32)cc1", "note": "(centres undefined)", "z-score": -0.29},
      {"smiles": "CC(=O)Nc1ncc2c(n1)CC(c1ccco1)CC2=O", "note": "(centres undefined)", "z-score": 0.634},
      {"smiles": "COc1ccc(-c2ccnc(SCC(=O)c3ccc(Cl)cc3)n2)cc1", "z-score": -0.334},
      {"smiles": "COc1cccc(N(C(=O)c2ccco2)C(C(=O)NC2CCCC2)c2cccnc2)c1", "note": "(centres undefined)", "z-score": 0.962},
      {"smiles": "Cc1nc(NC(=O)c2cc(-n3cnnc3)ccc2Cl)ccc1Br", "z-score": -0.225},
      {"smiles": "O=C(Nc1ccccc1N1CCN(C(=O)c2ccc(Cl)cc2)CC1)c1cc2ccccc2o1", "z-score": -0.264},
      {"smiles": "CCc1ccc2[nH]c(=O)c(CN(CCN(C)C)C(=O)Nc3ccccc3)cc2c1", "z-score": -0.0486},
      {"smiles": "Cc1cc(Cl)c(S(=O)(=O)Nc2ccccn2)cc1OCC(N)=O", "z-score": 0.282},
      {"smiles": "Cn1c2c(c(=O)n(C)c1=O)C(c1ccc(O)cc1)Nc1ccccc1O2", "note": "(centres undefined)", "z-score": -0.242},
      {"smiles": "Cc1nc2c3ccccc3nc(SCC(=O)N3CC(C)CC(C)C3)n2n1", "note": "(centres undefined)", "z-score": -0.279},
      {"smiles": "CC1CC(C)CN(C(=S)Nc2ccc(OC(F)F)cc2)C1", "note": "(centres undefined)", "z-score": -0.115},
      {"smiles": "CC1=Nn2c(nnc2C2CCCCC2)SC1", "z-score": -0.0727},
      {"smiles": "Cc1sc2c(c1C)c(=O)nc1scc(C)n12", "z-score": 0.0939},
      {"smiles": "COc1ccc(NS(=O)(=O)c2cc(NC(=O)c3cnc(C)cn3)ccc2N2CCCC2)cc1", "z-score": 0.145},
      {"smiles": "CN1CCC(N(C)C(=S)Nc2ccc(SC(F)F)cc2)CC1", "z-score": -0.0288},
      {"smiles": "CC1CCN(S(=O)(=O)c2ccc(S(=O)(=O)NCC3COCCO3)cc2)CC1", "note": "(centres undefined)", "z-score": -0.165},
      {"smiles": "COc1cc(C2Nc3cccc4cccc(c34)N2)cc(OC)c1O", "z-score": -0.213},
      {"smiles": "Cn1c2c(c(=O)n(C)c1=O)C(c1ccccc1Cl)CC(=O)N2", "note": "(centres undefined)", "z-score": -0.455},
      {"smiles": "CC(C)(C)NC(=O)C(Cc1ccccc1)NS(=O)(=O)c1cccc2nsnc12", "note": "(centres undefined)", "z-score": -0.0796},
      {"smiles": "Cc1ccc(S(=O)(=O)NC(=O)COc2ccccc2C(N)=O)cc1", "z-score": 0.117},
      {"smiles": "CCOC(=O)c1c(NC(=O)COC(=O)c2nc(Cl)ccc2Cl)sc2c1CCC2", "z-score": -0.388},
      {"smiles": "CCOC(=O)C1CCN(C(=O)CN(c2cccc(OC)c2)S(=O)(=O)c2ccccc2)CC1", "z-score": -0.124},
      {"smiles": "Cc1ccc(/C=C/C(=O)c2c(C)nc3ccccn23)cc1", "z-score": -0.499},
      {"smiles": "O=C(CN1C(=O)CSc2ccccc21)NCCC1=CCCCC1", "z-score": 0.0736},
      {"smiles": "O=C(C1=NN(c2ccccc2)C2C(=O)N(c3ccc(Cl)cc3)C(=O)C12)c1ccccc1", "note": "(centres undefined)", "z-score": -0.0541},
      {"smiles": "Nc1nc(NC(=O)/C=C/c2ccccc2)nn1-c1ccccc1", "z-score": -0.153},
      {"smiles": "Cc1ccc(-c2nc3cccnc3s2)cc1NC(=O)c1ccco1", "z-score": 0.542},
      {"smiles": "O=C(Nc1ccc(N2CCOCC2)cc1)c1cccc(S(=O)(=O)N2CCC(Cc3ccccc3)CC2)c1", "z-score": 0.359},
      {"smiles": "O=C(Nc1nnc(C2CC2)s1)c1ccc(S(=O)(=O)c2ccccc2)cc1", "z-score": 0.00782},
      {"smiles": "c1ccc(C2(CNc3ccccn3)CCCC2)cc1", "z-score": -0.181},
      {"smiles": "Cc1ccc(NC(=O)NC(=O)COc2ccc(Cl)cc2Cl)c(C)c1", "z-score": -0.554},
      {"smiles": "COc1cc(C2C(C(=O)c3ccco3)=C(O)C(=O)N2Cc2cccnc2)cc(OC)c1OC", "note": "(centres undefined)", "z-score": 0.799},
      {"smiles": "CN1c2ccccc2Oc2c(c(=O)n(C)c(=O)n2C)C1c1cccc([N+](=O)[O-])c1", "note": "(centres undefined)", "z-score": 0.777},
      {"smiles": "COc1cc(CNc2nc3ccccc3[nH]2)cc(OC)c1OC", "z-score": -0.478},
      {"smiles": "C#CCOc1ccc(Cl)cc1/C=N/O", "z-score": -0.156},
      {"smiles": "O=C(Nc1ccccc1-c1ccccc1)C1CCCCC1", "z-score": -0.23},
      {"smiles": "CCOC(=O)c1cc(-c2ccc3c(c2)OCCO3)nc2c1c(C)nn2CCC#N", "z-score": -1.28},
      {"smiles": "CCC(C)(C)n1c(=O)[nH]c2c(c1=O)CCC2", "z-score": -0.0491},
      {"smiles": "CC(C)(C)NC(=O)CN(C(=O)CS(=O)CC(=O)Nc1ccc(F)cc1)c1ccc(Cl)cc1", "note": "(centres undefined)", "z-score": -0.24},
      {"smiles": "Cc1ccc(-c2cc(C(F)F)n3ncc(C(=O)N4CCN5CCCC5C4)c3n2)cc1", "note": "(centres undefined)", "z-score": -0.324},
      {"smiles": "CC1CCCN(CC(=O)Nc2cccc([N+](=O)[O-])c2)C1", "note": "(centres undefined)", "z-score": -0.561},
      {"smiles": "COc1cccc(-c2nn(-c3ccccc3)cc2/C=C\\C(=O)c2cccs2)c1", "z-score": 0.12},
      {"smiles": "O=C(Nc1ccccc1)c1ccc(S(=O)(=O)NCc2ccco2)cc1", "z-score": -0.18},
      {"smiles": "CC(=O)c1cccc(NC(=O)NC(C)C2CCCO2)c1", "note": "(centres undefined)", "z-score": -0.0986},
      {"smiles": "O=C(c1csc2ccccc12)N1CCN(c2ccc(Cl)c(Cl)c2)CC1", "z-score": -0.383},
      {"smiles": "CCc1ccc2[nH]c3nc(SCC(=O)NNC(=O)c4ccc(C(C)(C)C)cc4)nnc3c2c1", "z-score": -0.0392}
    ]}
  ]
}
